What was measured:
soluble human FcRn [1] = target: T1, soluble human FcRn (human, UniProt P55899 partial chain; P61769 partial chain); assay: SPR (Biacore), pH 7.0, 25 C;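 also: antibodies captured on a protein L-coated CM4 chip with human FcRn injected as analyte, KD obtained from ka and kd fitted to sensorgrams, in sodium phosphate buffer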
T1 construct: Heterodimer of alpha chain and beta2-microglobulin; also called hFcRn

soluble human FcRn [2] = target: T2, soluble human FcRn (human, UniProt P55899 partial chain; P61769 partial chain); assay: SPR (Biacore T100), antibody captured by protein L, hFcRn as analyte, pH 7.0, 25 C;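 also: KD calculated from fitted association and dissociation rate constants of the sensorgrams, protein L amine-coupled to the sensor chip, sodium phosphate running buffer with NaCl and Tween20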
T2 construct: Heterodimer of FcRn alpha chain and beta2-microglobulin; also called hFcRn

Row | Kd (soluble human FcRn [1]) | Kd (soluble human FcRn [2]) | Binder
1 | 1900 nM |  | IgG1-F1410 (antibody) heavy: QVQLQESGPGLVKPSETLSLTCAVSGHSISHDHAWSWVRQPPGEGLEWIGFISYSGITNYNPSLQGRVTISRDNSKNTLYLQMNSLRAEDTAVYYCARSLARTTAMDYWGEGTLVTVSS[gap - human IgG1 constant region with V308P I332V (EU numbers)] light: DIQMTQSPSSLSASVGDRVTITCRASQDISSYLNWYQQKPGKAPKLLIYYTSRLHSGVPSRFSGSGSGTDFTFTISSLQPEDIATYYCQQGNTLPYTFGQGTKVEIKRTVAAPSVFIFPPSDEQLKSGTASVVCLLNNFYPREAKVQWKVDNALQSGNSQESVTEQDSKDSTYSLSSTLTLSKADYEKHKVYACEVTHQGLSSPVTKSFNRGEC
2 |  | 480 nM | IgG1-F1159 (antibody, EU numbering; copies: 2 + 2) heavy: QVQLQESGPGLVKPSETLSLTCAVSGHSISHDHAWSWVRQPPGEGLEWIGFISYSGITNYNPSLQGRVTISRDNSKNTLYLQMNSLRAEDTAVYYCARSLARTTAMDYWGEGTLVTVSS[gap - human IgG1 constant region with S424N N434W (EU numbers)] light: DIQMTQSPSSLSASVGDRVTITCRASQDISSYLNWYQQKPGKAPKLLIYYTSRLHSGVPSRFSGSGSGTDFTFTISSLQPEDIATYYCQQGNTLPYTFGQGTKVEIKRTVAAPSVFIFPPSDEQLKSGTASVVCLLNNFYPREAKVQWKVDNALQSGNSQESVTEQDSKDSTYSLSSTLTLSKADYEKHKVYACEVTHQGLSSPVTKSFNRGEC

Source: patent publication US20140363428A1 (Chugai, published 2014)
